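Exposure lasted 48 hours, with cells grown in 96-well plates and compounds tested at five concentrations. GI50 is the concentration that inhibits growth by half. TGI: concentration producing complete growth inhibition.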
Test system: NCI-H322M lung
Assay: inhibition of tumour cell growth, NCI panel, 48 h

Compound	TGI [µM]	GI50 [µM]
C[C@]12CC[C@H]3[C@@H](CC=C4C[C@@H](O)CC[C@@]43C)[C@@H]1C/C(=C\c1ccncc1)[C@@H]2O	51.7	–
C=CCCn1nc(-c2ccccc2)oc1=O	> 100	–
CCOC(=O)C(C)NC(=O)NC12CC3CC(CC(F)(C3)C1)C2 (centres undefined)	> 100	–
O=S(Cc1ccccc1)c1ccccc1Cn1cccc1 (centres undefined)	> 100	–
COc1ccc(C(=O)/C=C/c2cc(-c3ccc(OC)c(OC)c3)n[nH]2)cc1OC	8.23	2.67
O=CN/C=C/c1ccccc1	> 100	–
Cc1nc2ccccc2c(=O)n1/N=C(\N=Nc1ccccc1)c1ccccc1Cl	> 100	–
CCOc1ccccc1/C=N\N=C(N/N=C/c1ccccc1OCC)N/N=C/c1ccccc1OCC	> 100	2.94
Oc1ccc(N=Nc2ccc(Br)cc2)c(O)c1	44	7.04
c1cc(OCCN2CCCC2)ccc1CNc1ccc2nc(CCC3CCCCC3)[nH]c2c1	7.4	2.48
CC1(C)C(=O)/C=C\C(=O)C(C)(C)C2=CC=C(O2)C(C)(C)C(=O)C(Br)C(Br)C(=O)C(C)(C)C2=CC=C1O2 (centres undefined)	> 100	–
O=S(=O)(c1ccccc1)C1CC(c2nc3ccccc3[nH]2)=NO1 (centres undefined)	> 100	–
Cc1nc(C(N)=S)sc1C(=O)CC(=O)C(=O)Nc1ccc(Br)cc1	> 100	–
COC(=O)c1c2c(c(C)[n+]([O-])c1C)C(=O)C(NCc1ccccc1)=CC2=O	8.15	2.59
O=C1OC2(c3ccc(O)cc3Oc3cc(O)ccc32)c2cccc3cccc1c23	> 100	25.1
N#CC(Sc1ccccc1)C(N)=O (centres undefined)	> 100	–
COC(=O)CCc1n(Cc2ccc3ccccc3c2)c2ccccc2[n+]1Cc1ccc2ccccc2c1	5.82	1.76
COc1cc2c(cc1OC)[C@@H]1C(=O)c3ccc4c(c3O[C@@H]1CO2)C[C@H](C(C)C)O4	> 100	27.2
COc1ccc(OC)c(N2CC(O)=C(c3nc4ccccc4s3)C2=N)c1	> 100	74.7
O=c1c2ccccc2n2c(-c3ccccc3O)nnc2n1-c1ccccc1	> 100	–
O=c1[nH]c(-c2ccc(Cl)c(Cl)c2)cn1-c1ccc(Cl)cc1	80.4	26.5
COc1ccc(C2(CC(C)C)CCNC2)cc1OC (centres undefined)	> 100	–
CCOC(=O)C1CC(=O)C=C2CCCCC21 (centres undefined)	> 100	–
CCOC(=O)C1=C(C(=O)OCC)SC2(S1)C(C(=O)OCC)=C(C(=O)OCC)Sc1c2ssc1=O	23.2	–
O/N=C1/CCCC/C1=C\c1ccc(Cl)c(Cl)c1	89.9	–

Compound	TGI [µM]	GI50 [µM]
Cc1cc(N(CCC#N)CCC#N)ccc1/C=C1N=C(/C=C\c2ccccc2)N(NC(=O)CC(=O)Nc2ccccc2Cl)C\1=O	> 100	–
CCOC(=O)c1c(NC(=S)Nc2ccccc2)sc2c1CCN(C)C2	> 100	–
CC1OC(n2cc(F)c(=O)[nH]c2=O)CCC1=O (centres undefined)	> 100	–
COc1cc(/C=C2\CCC(C)C3=C2N=c2s/c(=C/c4ccc(Cl)cc4)c(=O)n2C3c2cc(OC)c(OC)c(OC)c2)cc(OC)c1OC (centres undefined)	> 100	–
COc1cc2c(/C=C3\C(=O)N(C)c4ccccc43)c[nH]c2cc1C	> 100	8.18
C[C@]12Cc3conc3C(O)=C1CC[C@@H]1C2CC[C@@]2(C)C1CC[C@@H]2O (some centres undefined)	89	–
CCOC(=O)c1c(CN2CCNCC2)nc2ccc(Cl)cc2c1-c1ccccc1	29.8	–
O=C(CCN1CCCCC1)Nc1ccc2c(c1)C(=O)c1ccc(NC(=O)CCN3CCCCC3)cc1C2=O	11.6	–
COc1cc(/C=N/NC(=O)c2c(Cl)c(Cl)c(Cl)c(Cl)c2-c2nc3ccc(C(=O)c4ccccc4)cc3[nH]2)ccc1O	> 100	–
CC(=O)OCC1OC(SC2=N/C(=C\c3ccc(Br)s3)C(=O)N2c2ccccc2)C(OC(C)=O)C(OC(C)=O)C1OC(C)=O (centres undefined)	> 100	–
O=S1Nc2cccc(C(F)(F)F)c2S1 (centres undefined)	> 100	–
CC(=O)NC1=NC(=O)/C(=C/c2ccccc2Cl)N1C	> 100	–
N#CC(NNC(=O)Cc1ccccc1)c1ccc([N+](=O)[O-])cc1 (centres undefined)	> 100	–
C/C(O)=C(/C=N/C(=S)Nc1ccccc1)C(=O)Nc1ccccc1C	> 100	–
CC(C)CNC1=NCC(C)S1 (centres undefined)	> 100	–
Cc1nnn(C)c1-c1cnc2c3ccc(C(C)(C)O)cc3n([C@H](c3ccccc3)C3CCOCC3)c2c1	> 100	0.0588
Cc1ccc(/C(=N/NS(=O)(=O)c2cc(C)c(Cl)cc2Cl)Sc2cc(Cl)c(C)cc2S(N)(=O)=O)cc1	> 100	> 100
NC(=O)c1ncn(C2C=CC(CP(=O)(O)O)C2)c1N (centres undefined)	> 100	–
COc1cc2c3c(n(CCCN=[N+]=[N-])c(=O)c2cc1OC)-c1ccc([N+](=O)[O-])cc1C3=O	> 100	> 100
CCC1C(NC(=O)OC)C(=O)N1[C@@H](C)c1ccccc1 (some centres undefined)	> 100	–
O=C1c2cc3c(cc2CC12Cc1ccccc1C2)CCC3	40.6	–
Brc1ccc(-c2[nH]c3ccccc3c2/C=N\Nc2ccc(-c3nc4ccccc4[nH]3)cc2)cc1	> 100	–
O=C1c2ccccc2CC12Cc1cc3c(cc1C2)CCC3	> 100	–
NC1CCN(c2nc3ccccc3c3c2CCCC3)CC1	13.2	–
CC(C)CCN(CCC(C)C)CC(=O)Nc1ccc(S(=O)(=O)c2ccc(NC(=O)CN(CCC(C)C)CCC(C)C)cc2)cc1	20.7	6.21

Compound	TGI [µM]	GI50 [µM]
COc1cc2c(c(OC)c1OC)-c1ccc(SC)c(=O)cc1[C@@H](NC(=O)c1cccc([N+](=O)[O-])c1)CC2	65.1	–
CCc1cc2c(c(OCC(F)(F)F)c(C(=O)NC3CCN(C(=O)CO)CC3)n2C)c(=O)n1CC(=O)c1ccccc1	> 100	97.9
O=C1CCC2(c3ccc(Cl)cc3)Nc3ccccc3N12 (centres undefined)	> 100	–
OCC1OC(N2C=C(c3nc4ccccc4s3)C3C=CC=CC32)C(O)C(O)C1O (centres undefined)	> 50	17
O=C(C[C@@H]1CCCN2CCCC[C@H]12)N1c2ccccc2Sc2ccc(Cl)cc21	30.2	–
C=C(C)CC(C(=O)O)c1ccc(C)cc1 (centres undefined)	> 100	–
O=C(COc1ccccc1)NNc1ccccc1	> 300	> 300
O=C(NCCCCCCCCNC(=O)Nc1cccc2ccccc12)Nc1cccc2ccccc12	> 100	–
COC(=O)CN(CC(=O)NCCNC(=O)OC(C)(C)C)C1CCCCC1N(CC(=O)OC)CC(=O)OC (centres undefined)	> 100	–
CCCC(=O)OCC1OC(n2cc(F)c(=O)[nH]c2=O)C(F)C1O (centres undefined)	> 100	–
COc1cc2c3c(n(CCCN=[N+]=[N-])c(=O)c2cc1OC)-c1ccccc1C3=O	> 100	14.5
Cc1cc(C)c(/C=C2\C(=O)Nc3ccccc32)[nH]1	> 100	–
CC(=O)N1c2ccccc2N(C(C)=O)C1c1ccc(C2N(C(C)=O)c3ccccc3N2C(C)=O)[nH]1	> 100	–
Cc1ccc(NC(=O)C2C3C=CC(O3)C2C(=O)O)cc1 (centres undefined)	> 100	–
C/C(=N\O)c1ccc(OCc2cc(C(F)(F)F)cc(C(F)(F)F)c2)cc1	> 100	–
COc1ccc2c(n1)Sc1nc3ccccc3nc1N2	> 100	–
COc1cccc(C2=NC(C(C)C)CO2)c1OC (centres undefined)	> 100	–
CCOC(=O)C(=[N+]=[N-])C(=O)CSC#N	> 100	–
N#C/C(c1nc2ccccc2[nH]1)=c1\s/c(=C/c2ccccc2)c(=O)n1-c1ccccc1	> 100	–
CCOC(=O)c1c(NN2CCN(CC(F)(F)F)CC2)oc(/C=C2\C=Nc3ncccc32)c1O	55.5	9.27
Cc1cccc(N=Nc2c(C)nn(C(=O)CC(=O)Nc3ccc(Cl)cc3)c2C)c1	> 100	–
COc1ccc(O)c(/C=N\Nc2ccccc2)c1	> 100	–
COc1ccc(C2c3ccc4ccccc4c3Oc3ncn(CCCn4ccnc4)c(=N)c32)cc1OC (centres undefined)	17.5	4.98
O=C(O)c1cc2ccccc2c(N=Nc2ccc(S(=O)(=O)Nc3ccccn3)cc2)c1O	> 100	–
Cn1cnc([N+](=O)[O-])c1Sc1n[nH]c(-c2ccc(Cl)cc2)n1	52.7	–

Compound	TGI [µM]	GI50 [µM]
O=C1/C(=C/c2ccccc2Cl)COc2ccc(Br)cc21	> 100	–
O=S(O)O.O=S(O)O.[Co].[NH2-].[NH2-].[NH2-].[NH2-]	> 100	> 100
COc1cccc([C@@H]2C/C(=N\NC(=O)C(=O)N[C@@H](C)c3ccccc3)c3ccccc3N2)c1	> 100	–
CC(C)N(C(=O)C12C3C4C5C3C1(C(=O)O)C5C42)C(C)C (centres undefined)	> 100	–
NC1=NN(c2ccccc2)C(=O)C1C(=O)C(=O)Nc1ccccc1 (centres undefined)	> 100	–
O=C(/C=C/c1ccc([N+](=O)[O-])cc1)N1CCN(CCOC(c2ccc(F)cc2)c2ccc(F)cc2)CC1	> 100	–
CCCCCCCCCCC/C=C(/C(=O)CCCO[Si](C)(C)C(C)(C)C)C(=O)OC	> 100	–
Cn1c(=O)c2c(nc3n2CCCC(=O)N3CCCCl)n(C)c1=O	> 100	–
Cc1cccc2c(=O)c3c(sc12)c(NCCCNCCO)nc1ccccc13	3.15	1.66
Nc1nc(-c2cccnc2)cc(-c2cc(-c3cccnc3)nc(N)n2)n1	> 100	–
C/C(=C/CC[C@](C)(OC1OC(CO)C(O)C(O)C1O)[C@H]1CC[C@]2(C)[C@@H]1CC[C@@H]1[C@@]3(C)CC[C@H](O)C(C)(C)[C@@H]3C[C@H](O)[C@]12CO)CO (some centres undefined)	> 100	–
Cc1cc(C)n(-c2nc(-n3nc(C)cc3C)nc(-n3nc(C)cc3C)n2)n1	> 100	–
CCc1cccc(C(C)C)c1NC(=O)/C(=N\NC(N)=O)C(C(=O)OC)c1cnc2ccccc2n1 (centres undefined)	> 100	–
CCCCCCOC(=O)CC1=C(C)/C(=C/c2[nH]c(-c3ccc[nH]3)cc2OC)N=C1C	2.16	0.538
COc1ccc(C2(Cl)C(Cl)(C(F)(F)F)C2(Cl)C(F)(F)F)cc1 (centres undefined)	29.8	–
COc1cc(CSc2nc3ccc(Cl)cc3c(=O)n2Cc2ccccc2)cc(OC)c1OC	> 100	10
COC(=O)c1c(O)ccc2c1c1c(n2CCc2ccc(OC)c(OC)c2)C(=O)c2ccccc2C1=O	34	–
CCCCCCCCCCCCCCCCn1cc[n+](C)c1	2.55	1.23
CCNCC(=O)Nc1ccc2c(c1)C(=O)c1ccc(NC(=O)CNCC)cc1C2=O	6.56	–
CCOC(=O)NC(=O)c1cn(CCSCCOC(=O)NCCCCCCNC(=O)OCCSCCn2cc(C(=O)NC(=O)OCC)c(=O)n(C)c2=O)c(=O)n(C)c1=O	> 100	–
O=C1OC(c2ccc(O)cc2)(c2ccc(O)cc2)c2ccc(Cl)c3cccc1c23 (tested in a mixture with another compound)	30.5	–
COc1ccc2c(=O)c3ccoc3[nH]c2c1	> 100	–
O=C(NC(CS)C(=O)O)c1c2ccccc2nc2ccccc12 (centres undefined)	> 100	–

— PubChem BioAssay (NCI)
